# Data from the supplement of paper PMC8728848.
# The other results are listed elsewhere or left out.
# Experiments:
# Assay in all cases: glycan array binding signal (z-score within array); higher = stronger binding
# Conditions in all cases: glycan notation: IUPAC condensed, linker removed
# [1] = biological target: Gal(b1-4)GlcNAc(b1-6)Gal(b1-4)GlcNAc
# In short: (§1)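 Arrays were curated from the Consortium for Functional Glycomics database, 3228 in total, and kept only where the protein sequence was available. Binding is expressed as a within-array Z-score. This score was averaged across arrays of the same protein sequence at different concentrations or buffers and across linkers, and negative values can be read as non-binding.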
# [2] = biological target: Gal(b1-4)GlcNAc(b1-6)Gal(b1-4)GlcNAc(b1-6)GalNAc
# In short: as §1
# [3] = biological target: Gal(b1-4)GlcNAc(b1-6)GalNAc
# In short: as §1
# [4] = biological target: Gal(b1-4)GlcNAc(b1-6)[Gal(b1-3)]GalNAc
# In short: as §1
# Gal3S(b1-3)GalNAc = biological target: Gal3S(b1-3)GalNAc
# In short: as §1
# Gal3S(b1-3)GlcNAc = biological target: Gal3S(b1-3)GlcNAc
# In short: as §1
# [5] = biological target: Gal3S(b1-3)[Fuc(a1-4)]GlcNAc
# In short: as §1
# Gal3S(b1-4)Glc = biological target: Gal3S(b1-4)Glc
# In short: as §1
# Gal3S(b1-4)Glc6S = biological target: Gal3S(b1-4)Glc6S
# In short: as §1
# Gal3S(b1-4)GlcNAc = biological target: Gal3S(b1-4)GlcNAc
# In short: as §1
# Gal3S(b1-4)GlcNAc6S = biological target: Gal3S(b1-4)GlcNAc6S
# In short: as §1
# [6] = biological target: Gal3S(b1-4)[Fuc(a1-3)]Glc
# In short: as §1
# Gal3S4S(b1-4)GlcNAc = biological target: Gal3S4S(b1-4)GlcNAc
# In short: as §1
# Gal3S6S(b1-4)GlcNAc = biological target: Gal3S6S(b1-4)GlcNAc
# In short: as §1
# Gal3S6S(b1-4)GlcNAc6S = biological target: Gal3S6S(b1-4)GlcNAc6S
# In short: as §1
# Gal4S(b1-4)GlcNAc = biological target: Gal4S(b1-4)GlcNAc
# In short: as §1
# Gal4S6S(b1-4)GlcNAc = biological target: Gal4S6S(b1-4)GlcNAc
# In short: as §1
# Gal6S(b1-4)Glc = biological target: Gal6S(b1-4)Glc
# In short: as §1
# Gal6S(b1-4)Glc6S = biological target: Gal6S(b1-4)Glc6S
# In short: as §1
# Gal6S(b1-4)GlcNAc = biological target: Gal6S(b1-4)GlcNAc
# In short: as §1
# Gal6S(b1-4)GlcNAc6S = biological target: Gal6S(b1-4)GlcNAc6S
# In short: as §1
# GalNAc(a1-3)Gal = biological target: GalNAc(a1-3)Gal
# In short: as §1
# GalNAc(a1-3)GalNAc = biological target: GalNAc(a1-3)GalNAc
# In short: as §1
# GalNAc(b1-3)Gal = biological target: GalNAc(b1-3)Gal
# In short: as §1
# [7] = biological target: GalNAc(b1-3)Gal(a1-4)Gal(b1-4)GlcNAc
# In short: as §1
# [8] = biological target: GalNAc(b1-3)Gal(a1-4)Gal(b1-4)GlcNAc(b1-3)Gal(b1-4)Glc
# In short: as §1
# GalNAc(b1-3)GalNAc = biological target: GalNAc(b1-3)GalNAc
# In short: as §1
# GalNAc(b1-4)GlcNAc = biological target: GalNAc(b1-4)GlcNAc
# In short: as §1
# [9] = biological target: GalNAc(b1-4)GlcNAc(b1-2)Man(a1-3)[GalNAc(b1-4)GlcNAc(b1-2)Man(a1-6)]Man(b1-4)GlcNAc(b1-4)GlcNAc
# In short: as §1
# Glc(a1-4)Glc = biological target: Glc(a1-4)Glc
# In short: as §1
# Glc(a1-6)Glc(a1-6)Glc = biological target: Glc(a1-6)Glc(a1-6)Glc
# In short: as §1
# Glc(b1-4)Glc = biological target: Glc(b1-4)Glc
# In short: as §1
# Glc(b1-6)Glc = biological target: Glc(b1-6)Glc
# In short: as §1
# GlcA(b1-3)Gal = biological target: GlcA(b1-3)Gal
# In short: as §1
# GlcA(b1-3)GlcNAc = biological target: GlcA(b1-3)GlcNAc
# In short: as §1
# GlcA(b1-6)Gal = biological target: GlcA(b1-6)Gal
# In short: as §1
# [10] = biological target: GlcNAc(a1-3)Gal(b1-4)GlcNAc
# In short: as §1
# [11] = biological target: GlcNAc(a1-4)Gal(b1-3)GlcNAc
# In short: as §1
# [12] = biological target: GlcNAc(a1-4)Gal(b1-4)GalNAc
# In short: as §1
# [13] = biological target: GlcNAc(a1-4)Gal(b1-4)GlcNAc
# In short: as §1
# [14] = biological target: GlcNAc(a1-4)Gal(b1-4)GlcNAc(b1-3)Gal(b1-4)Glc
# In short: as §1
# [15] = biological target: GlcNAc(a1-4)Gal(b1-4)GlcNAc(b1-3)Gal(b1-4)GlcNAc
# In short: as §1
# [16] = biological target: GlcNAc(a1-4)Gal(b1-4)GlcNAc(b1-3)Gal(b1-4)GlcNAc(b1-3)Gal(b1-4)GlcNAc
# In short: as §1
binder,measurement,setting,value
"CCL2 (Coprinopsis cinerea), B3GA02 (protein) MDSPAVTLSAGNYIIYNRVLSPRGEKLALTYPGRQRTPVTVSPLDGSSEQAWILRSYDSNSNTWTISPVGSPNSQIGWGAGNVPVVLPPNNYVWTLTLTSGGYNIQDGKRTVSWSLNNATAGEEVSIGADATFSGRWVIEKV",glycan array binding signal (z-score),[1],-0.288
same,glycan array binding signal (z-score),[2],-0.254
same,glycan array binding signal (z-score),[3],-0.287
same,glycan array binding signal (z-score),[4],-0.292
same,glycan array binding signal (z-score),Gal3S(b1-3)GalNAc,-0.277
same,glycan array binding signal (z-score),Gal3S(b1-3)GlcNAc,-0.253
same,glycan array binding signal (z-score),[5],-0.224
same,glycan array binding signal (z-score),Gal3S(b1-4)Glc,-0.285
same,glycan array binding signal (z-score),Gal3S(b1-4)Glc6S,-0.228
same,glycan array binding signal (z-score),Gal3S(b1-4)GlcNAc,-0.29
same,glycan array binding signal (z-score),Gal3S(b1-4)GlcNAc6S,-0.276
same,glycan array binding signal (z-score),[6],-0.268
same,glycan array binding signal (z-score),Gal3S4S(b1-4)GlcNAc,-0.265
same,glycan array binding signal (z-score),Gal3S6S(b1-4)GlcNAc,-0.28
same,glycan array binding signal (z-score),Gal3S6S(b1-4)GlcNAc6S,-0.258
same,glycan array binding signal (z-score),Gal4S(b1-4)GlcNAc,-0.26
same,glycan array binding signal (z-score),Gal4S6S(b1-4)GlcNAc,-0.276
same,glycan array binding signal (z-score),Gal6S(b1-4)Glc,-0.268
same,glycan array binding signal (z-score),Gal6S(b1-4)Glc6S,-0.267
same,glycan array binding signal (z-score),Gal6S(b1-4)GlcNAc,-0.288
same,glycan array binding signal (z-score),Gal6S(b1-4)GlcNAc6S,-0.2
same,glycan array binding signal (z-score),GalNAc(a1-3)Gal,-0.282
same,glycan array binding signal (z-score),GalNAc(a1-3)GalNAc,-0.284
same,glycan array binding signal (z-score),GalNAc(b1-3)Gal,-0.268
same,glycan array binding signal (z-score),[7],-0.279
same,glycan array binding signal (z-score),[8],-0.3
same,glycan array binding signal (z-score),GalNAc(b1-3)GalNAc,-0.289
same,glycan array binding signal (z-score),GalNAc(b1-4)GlcNAc,-0.279
same,glycan array binding signal (z-score),[9],-0.277
same,glycan array binding signal (z-score),Glc(a1-4)Glc,-0.298
same,glycan array binding signal (z-score),Glc(a1-6)Glc(a1-6)Glc,-0.3
same,glycan array binding signal (z-score),Glc(b1-4)Glc,-0.3
same,glycan array binding signal (z-score),Glc(b1-6)Glc,-0.292
same,glycan array binding signal (z-score),GlcA(b1-3)Gal,-0.273
same,glycan array binding signal (z-score),GlcA(b1-3)GlcNAc,-0.286
same,glycan array binding signal (z-score),GlcA(b1-6)Gal,-0.284
same,glycan array binding signal (z-score),[10],-0.29
same,glycan array binding signal (z-score),[11],-0.264
same,glycan array binding signal (z-score),[12],-0.268
same,glycan array binding signal (z-score),[13],-0.281
same,glycan array binding signal (z-score),[14],-0.271
same,glycan array binding signal (z-score),[15],-0.169
same,glycan array binding signal (z-score),[16],-0.272
